Laboratory results: PubChem BioAssay AID504333 (National Center for Advancing Translational Sciences (NCATS), 2011)
Screen size: about 360,000 compounds; about 16,000 (4.4%) were called active. The inconclusive results got no clear call from the source; some entries with a clear call stand among them for comparison. Calls come from the whole dose curve; as a rule, active = well fitted inhibition curve with a large enough effect; inconclusive = small, poorly fitted or top-dose-only effect; inactive = no such curve, though single readings can be large or run the other way. Potencies of inconclusive entries are doubtful fits and often do not repeat.

biological target: Bromodomain adjacent to zinc finger domain protein 2B (Homo sapiens) (UniProt Q9UIF8); assay: qHTS Assay for Inhibitors of BAZ2B; conditions: AlphaScreen BAZ2B-H3K14Ac peptide displacement; activity change, negative = inhibition: at 114 µM (top of the series) unless noted; note: nearly all actives have a fitted effect of over 60% in size
Summary of the method: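 AlphaScreen displacement: compounds (up to 110uM) incubated 30 min at room temperature with a preformed 50 nM BAZ2B/50 nM biotinylated H3K14Ac peptide complex in PBS pH 7.4 with Tween-20. Donor and acceptor beads at 10 ug/mL final added, 20 min light-protected before reading.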
% is set by controls: 0 for no effect and ±100 for the full control effect; potency is the fitted concentration of half-maximal effect; tags give direction and shape of the fitted curve.

UniProt Q9UIF8, sequence (Q9UIF8 whole entry, looked up, the tested form may be a part): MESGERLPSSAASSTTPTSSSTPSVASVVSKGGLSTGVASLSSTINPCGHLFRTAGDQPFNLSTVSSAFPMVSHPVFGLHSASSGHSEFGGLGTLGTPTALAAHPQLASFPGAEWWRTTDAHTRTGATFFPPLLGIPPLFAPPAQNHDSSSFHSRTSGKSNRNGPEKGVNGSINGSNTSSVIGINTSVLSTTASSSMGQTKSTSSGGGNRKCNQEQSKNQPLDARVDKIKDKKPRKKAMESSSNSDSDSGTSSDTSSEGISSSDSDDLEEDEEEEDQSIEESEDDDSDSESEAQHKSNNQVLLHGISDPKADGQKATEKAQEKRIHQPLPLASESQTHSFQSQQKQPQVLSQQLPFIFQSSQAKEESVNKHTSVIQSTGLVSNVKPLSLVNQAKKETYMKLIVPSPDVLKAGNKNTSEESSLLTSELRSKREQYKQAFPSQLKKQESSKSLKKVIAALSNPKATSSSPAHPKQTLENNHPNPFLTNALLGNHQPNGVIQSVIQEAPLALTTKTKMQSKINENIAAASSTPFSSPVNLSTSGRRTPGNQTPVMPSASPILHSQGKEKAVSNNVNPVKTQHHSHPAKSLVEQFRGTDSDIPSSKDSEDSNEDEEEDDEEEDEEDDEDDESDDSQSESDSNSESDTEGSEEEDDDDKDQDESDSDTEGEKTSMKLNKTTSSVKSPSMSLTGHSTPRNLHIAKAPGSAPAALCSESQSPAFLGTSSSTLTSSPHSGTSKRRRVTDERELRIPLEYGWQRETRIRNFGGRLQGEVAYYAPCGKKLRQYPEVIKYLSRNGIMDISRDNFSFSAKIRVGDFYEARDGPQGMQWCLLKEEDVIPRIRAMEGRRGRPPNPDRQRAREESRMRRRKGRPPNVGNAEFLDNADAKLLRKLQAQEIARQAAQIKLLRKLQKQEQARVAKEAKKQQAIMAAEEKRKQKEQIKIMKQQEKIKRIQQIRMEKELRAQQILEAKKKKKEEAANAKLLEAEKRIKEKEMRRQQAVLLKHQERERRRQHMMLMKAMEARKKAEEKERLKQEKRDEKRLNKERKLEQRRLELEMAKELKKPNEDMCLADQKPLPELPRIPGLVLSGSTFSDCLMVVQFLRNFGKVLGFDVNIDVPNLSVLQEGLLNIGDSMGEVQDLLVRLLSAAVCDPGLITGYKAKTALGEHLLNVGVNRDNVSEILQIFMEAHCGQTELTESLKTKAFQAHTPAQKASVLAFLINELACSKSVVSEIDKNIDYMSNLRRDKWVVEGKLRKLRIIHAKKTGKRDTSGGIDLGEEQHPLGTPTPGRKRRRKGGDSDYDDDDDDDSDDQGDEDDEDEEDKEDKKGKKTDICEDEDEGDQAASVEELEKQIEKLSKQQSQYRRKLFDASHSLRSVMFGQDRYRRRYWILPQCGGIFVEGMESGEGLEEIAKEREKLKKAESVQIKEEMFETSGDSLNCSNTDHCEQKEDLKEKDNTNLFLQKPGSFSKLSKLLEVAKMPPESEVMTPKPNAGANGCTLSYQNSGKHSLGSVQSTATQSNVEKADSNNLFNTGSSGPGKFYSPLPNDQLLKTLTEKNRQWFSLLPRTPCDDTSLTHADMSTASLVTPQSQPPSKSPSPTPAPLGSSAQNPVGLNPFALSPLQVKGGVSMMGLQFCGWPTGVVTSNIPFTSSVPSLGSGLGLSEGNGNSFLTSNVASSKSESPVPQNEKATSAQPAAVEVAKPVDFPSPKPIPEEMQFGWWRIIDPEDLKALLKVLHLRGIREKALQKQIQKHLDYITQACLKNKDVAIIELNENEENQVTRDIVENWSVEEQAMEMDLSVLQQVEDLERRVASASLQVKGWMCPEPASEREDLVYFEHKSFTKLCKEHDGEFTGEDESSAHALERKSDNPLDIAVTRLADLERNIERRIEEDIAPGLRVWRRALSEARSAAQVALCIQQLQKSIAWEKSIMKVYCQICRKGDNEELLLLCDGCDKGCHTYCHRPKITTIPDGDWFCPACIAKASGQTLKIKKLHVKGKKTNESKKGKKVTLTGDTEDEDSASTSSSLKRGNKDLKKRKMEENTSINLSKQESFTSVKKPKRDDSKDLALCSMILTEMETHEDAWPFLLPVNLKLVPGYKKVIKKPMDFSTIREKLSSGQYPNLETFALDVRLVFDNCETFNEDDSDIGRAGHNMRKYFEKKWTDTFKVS

Row | SMILES | activity change, negative = inhibition | Potency
1 | Cc1ccc(/C=N/N=C/c2ccc(C)cc2)cc1 | inactive: -0.247% | –
2 | COc1ccc(N2C(=O)/C(=C/c3cccs3)NC2=S)cc1 | – | inconclusive: 44.7 µM [inhibitor, partial curve]
3 | Cc1ccc(C(=O)CCC(=O)N2CCN(C(=O)c3ccco3)CC2)cc1 | inactive: -2.74% | –
4 | CCN1/C(=C/c2ccc3ccc(C)cc3[n+]2CC)Sc2ccccc21 | – | inconclusive: 79.4 µM [inhibitor, single point]
5 | Cc1ccc(/C=N/NC(=O)C[n+]2ccccc2)o1 | inactive: -20.1% | –
6 | Clc1ccc(C2=NNC(=NCC3CCCO3)SC2)cc1 (centres undefined) | – | inconclusive: 44.7 µM [inhibitor, partial curve]
7 | Cc1cc(O)c(C(c2cccc(Cl)c2)N2CCN(c3ccccc3)CC2)c(=O)n1Cc1ccco1 (centres undefined) | inactive: -20.7% | –
8 | CN(C)c1ccc(CN(CC2CCCO2)C(=O)COc2ccc(Cl)cc2)cc1 (centres undefined) | – | active: 31.6 µM
9 | CCC1CCCCN1S(=O)(=O)c1ccc(NC(=O)C2CCN(C(=O)c3ccco3)CC2)cc1 (centres undefined) | – | inconclusive: 79.4 µM [inhibitor, single point]
10 | CN(C)c1ccc(CNc2nc(-c3ccco3)nn2C(=O)c2cccc([N+](=O)[O-])c2)cc1 | – | active: 35.5 µM
11 | COc1cc(Cl)cc(/C=C/c2ccc3cccc(O)c3n2)c1OC | – | inconclusive: 39.8 µM [inhibitor, single point]
12 | O=C(c1ccncc1)N1N=C(c2ccc(Cl)cc2)CC1c1ccccc1O (centres undefined) | – | inconclusive: 56.2 µM [inhibitor, partial curve]
13 | COc1cc(CN(CCN(C)C)Cc2ccccc2)ccc1OCc1ccccc1 | – | active: 39.8 µM
14 | Cc1ccc([N+](=O)[O-])c(NC(=O)COC(=O)C2CC3CCCC(C2)C3=O)c1C (centres undefined) | inactive: -17.6% | –
15 | CC1CC(C)CN(C(=O)C(C)N(C)CC(=O)Nc2ccc(Cl)cc2)C1 (centres undefined) | – | active: 44.7 µM
16 | CC1=C(C(=O)O)N2C(=O)C(NC(=O)c3ccn(C)n3)C2SC1 (centres undefined) | – | inconclusive: 14.1 µM [inhibitor, partial curve, poor fit]
17 | O=C(Nc1nnc(COc2ccc(Cl)cc2)s1)c1ccco1 | – | inconclusive: 56.2 µM [inhibitor, partial curve]
18 | O=C(CCSc1ccccc1)Nc1ccc(S(=O)(=O)N2CCOCC2)cc1 | – | active: 56.2 µM
19 | CN1CCN(C(=S)NC(=O)c2ccc(Cl)cc2)CC1 | – | active: 56.2 µM
20 | COc1cccc(NS(=O)(=O)c2csc(C(N)=O)c2)c1 | inactive: -1.32% | –
21 | O=C(NCc1ccccc1)c1ccccc1C(=O)c1ncc[nH]1 | – | inconclusive: 89.1 µM [inhibitor, single point]
22 | Cc1oc2cc(O)ccc2c(=O)c1-c1nncn1-c1ccccc1 | inactive: -22.4% | –
23 | NC(=O)C1=CN(Cc2ccc(Cl)cc2)CCC1C(F)(F)F (centres undefined) | – | inconclusive: 89.1 µM [inhibitor, single point]
24 | Cc1ccc(-c2nc3c4cnn(-c5cc(Cl)ccc5Cl)c4ncn3n2)cc1 | inactive: -2.46% | –
25 | O=C(NCCN1C(=O)S/C(=C\c2ccccc2)C1=O)C1CCN(S(=O)(=O)c2cccs2)CC1 | inactive: 0.335% | –

Row | SMILES | activity change, negative = inhibition | Potency
26 | O=C(COc1ccc(Cl)cc1)NC1=NN(c2ccccc2)C(=O)C1 | – | inconclusive: 56.2 µM [inhibitor, partial curve]
27 | CCc1ccccc1-n1nnnc1SCC(=O)Nc1ccc(N2CCN(C)CC2)cc1 | – | inconclusive: 50.1 µM [inhibitor, partial curve]
28 | c1cc2c(cc1NC1CCCCCC1)OCO2 | – | active: 39.8 µM
29 | CC(=O)Nc1ccc(S(=O)(=O)N2CCN(CCCOc3cc(C)ccc3C)CC2)cc1 | – | inconclusive: 79.4 µM [inhibitor, single point]
30 | COc1cccc(-c2nc(CS(=O)CC(=O)N3CCN(c4cccc(C(F)(F)F)c4)CC3)c(C)o2)c1 (centres undefined) | inactive: -27.6% | –
31 | N#CC1=C(N)C(C#N)(C#N)[C@H](c2ccoc2)[C@H]2CN(Cc3ccccc3)CC=C12 | – | inconclusive: 89.1 µM [inhibitor, single point]
32 | CSc1cccc(NC(=O)CN2C(=O)c3ccccc3S2(=O)=O)c1 | – | inconclusive: 89.1 µM [inhibitor, single point]
33 | O=C(Cn1cncn1)N/N=C/c1ccccc1O | – | active: 79.4 µM
34 | COc1cccc(C(=O)/C=C/Nc2ccc(S(=O)(=O)Nc3onc(C)c3C)cc2)c1 | – | inconclusive: 79.4 µM [inhibitor, single point]
35 | CN(C)CCCOC(=O)c1sc2ccccc2c1Cl | – | inconclusive: 112 µM [inhibitor, partial curve]
36 | CN(C)c1ccc(C2N(c3ccc(F)cc3)C(=O)C3CCCN32)cc1 (centres undefined) | inactive: 19.7% | –
37 | OCC[C@@H]1C[C@@H](O)[C@H](O)[C@]2(Cc3ccccc3CO2)O1 | inactive: 3.65% | –
38 | COc1cc([N+](=O)[O-])cc2cc(C(=O)NC(C)(C)C)c(=O)oc12 | – | inconclusive: 79.4 µM [inhibitor, single point]
39 | O=C(OC(C(=O)Nc1ccc([N+](=O)[O-])cc1Br)c1ccccc1)c1ccccc1 (centres undefined) | – | inconclusive: 50.1 µM [inhibitor, partial curve]
40 | O=C(CN1CCSCC1)N1CCc2[nH]c3ccc(Br)cc3c2C1 | – | inconclusive: 89.1 µM [inhibitor, single point]
41 | Cc1cccc(NC(=S)N2CCC(c3nc4ccccc4o3)CC2)c1C | – | inconclusive: 89.1 µM [inhibitor, single point]
42 | CC(C)n1nc(C(=O)NNC(=O)c2ccncc2)c2ccccc2c1=O | – | inconclusive: 89.1 µM [inhibitor, single point]
43 | O=C1Nc2ccccc2C1=Nc1cccc(Cl)c1 | inactive: -31.1% | –
44 | Cc1ccc(N2CCN(CC(O)COc3ccccc3)CC2)cc1 (centres undefined) | – | inconclusive: 70.8 µM [inhibitor, single point]
45 | CCOC(=O)CSc1nnnn1-c1cc(OC)c(Cl)cc1OC | – | inconclusive: 79.4 µM [inhibitor, single point]
46 | Cc1ccc(-n2cc(CN3CCN(Cc4nccn4C)CC3)c(-c3ccc(F)cc3)n2)cc1 | – | inconclusive: 50.1 µM [inhibitor, partial curve]
47 | CCOC(=O)c1[nH]cnc1C(=O)N[C@@H](C)c1ccccc1 | – | active: 56.2 µM
48 | Cc1ccc(C(=O)CSc2nc3ccccc3c(=O)[nH]2)cc1 | inactive: 10.2% | –
49 | Cc1cc(=O)[nH]c(SCC(=O)Nc2nc3ccccc3s2)n1 | – | inconclusive: 79.4 µM [inhibitor, single point]
50 | COC(=O)c1ccc(NC(=O)CSc2nnc(-c3cccnc3)o2)cc1 | inactive: 7.8% | –

Row | SMILES | activity change, negative = inhibition | Potency
51 | NC(=O)C1CCN(c2nc(-c3ccc4c(c3)OCCO4)cs2)CC1 | – | inconclusive: 70.8 µM [inhibitor, single point]
52 | CCOC(=O)c1c(C)oc2nc(C)nc(NCCCN3CCN(c4cccc(C)c4)C(C)C3)c12 (centres undefined) | – | inconclusive: 22.4 µM [inhibitor, single point]
53 | CCC1CN(C(=O)Nc2cccc3c2CCCC3)c2cc(C)ccc2O1 (centres undefined) | inactive: -11.9% | –
54 | COC(=O)c1cc(COC(=O)c2ccc3ccccc3n2)oc1C | – | inconclusive: 100 µM [inhibitor, single point]
55 | O=C(O)c1cnc2ccccc2n1 | – | inconclusive: 79.4 µM [inhibitor, single point]
56 | O=C(COC(=O)Cc1cn2ccsc2n1)Nc1nc2ccccc2s1 | – | inconclusive: 79.4 µM [inhibitor, single point]
57 | COc1cc(/C=C\C(=O)NCc2ccc3[nH]c(C)cc3c2)cc(OC)c1OC | – | inconclusive: 44.7 µM [inhibitor, partial curve]
58 | CCNc1nc(NCC)nc(N/N=C(\C)c2ccc(OC)cc2)n1 | – | inconclusive: 56.2 µM [inhibitor, partial curve]
59 | CCN(CC)c1ccc(NC(=S)NC(=O)Cc2ccccc2)cc1 | – | active: 11.2 µM
60 | CC(=O)c1cccc(OCCCOc2cccc3cccnc23)c1 | inactive: -0.237% | –
61 | CCCN1CCN(C(=S)Nc2ccc([N+](=O)[O-])cc2)CC1 | inactive: 2.02% | –
62 | C=CCN1C(=O)/C(=C\C=C2\N(C)c3ccccc3C2(C)C)SC1=S | – | inconclusive: 79.4 µM [inhibitor, single point]
63 | COCCn1nnnc1C(c1cccc(C#N)c1)N1CCCCCC1 (centres undefined) | – | inconclusive: 89.1 µM [inhibitor, single point]
64 | O=S(=O)(Nc1nc2n(n1)C(c1ccccc1)C=C(c1ccc(Cl)cc1)N2)c1ccccc1 (centres undefined) | – | active: 79.4 µM
65 | COc1ccc(C2N(c3ccccc3)CCN2c2ccccc2)cc1O | – | inconclusive: 20 µM [inhibitor, full curve]
66 | O=C(NCc1cccc(Cl)c1)C1CCC(=O)N(CCCN2CCCC2=O)C1 (centres undefined) | inactive: -2.92% | –
67 | Cc1ccc2[nH]cc(CCNC(=O)Nc3ccccc3)c2c1 | – | inconclusive: 28.2 µM [inhibitor, single point]
68 | Cc1cc(-c2cc(-c3ccc(Cl)cc3)nc(N)c2C#N)co1 | – | inconclusive: 79.4 µM [inhibitor, partial curve]
69 | CNc1nc2[nH]c(=O)c3c(c2s1)OC(N)=C(C#N)C3c1cccc(F)c1 (centres undefined) | – | inconclusive: 89.1 µM [inhibitor, single point]
70 | COCCNC(=O)CSc1nc(-c2ccccc2)c(-c2ccccc2)o1 | – | inconclusive: 50.1 µM [inhibitor, partial curve]
71 | O=C(c1ccc(Cl)c(S(=O)(=O)N2CCOCC2)c1)N1CCCCCC1 | – | inconclusive: 28.2 µM [inhibitor, single point]
72 | O=C1N=C(N2CCCC2)S/C1=C\c1ccccc1 | inactive: 12.6% | –
73 | O=C(c1ccco1)N1CCN(C(=O)c2cc(-c3ccccc3)nc3ccccc23)CC1 | inactive: -3.52% [at 57.1 µM] | –
74 | CC1=CC(C)(C)[N+](C)(C)c2ccccc21 | – | inconclusive: 89.1 µM [inhibitor, single point]
